# Test results taken from PubChem BioAssay AID686978 (National Center for Advancing Translational Sciences (NCATS), 2013).
# Where “and” joins values, the source holds several entries; their conditions need not be identical. Equal values may be shown once. Out of some 420,000 compounds screened, about 64,000 (15%) were called active. The shares of active, inactive and inconclusive entries below differ from those in the screen. The call rests on the fitted dose curve; in most records, active means well fitted inhibition curve with a large enough effect; inconclusive means small, poorly fitted or top-dose-only effect; inactive means flat fitted curve, though single readings scatter. Potencies beside an inconclusive call are fits to weak or partial responses and may not hold up.
# Assay: qHTS for Inhibitors of human tyrosyl-DNA phosphodiesterase 1 (TDP1): qHTS in cells in absence of CPT; further: nearly all actives have a fitted effect of over 55% in size
# Conditions: DT40 Tdp1-/- hTDP1 cells, no CPT, ATP luminescence, 48 h; activity change, negative = growth inhibition: at 46.2 µM (top of the series) unless noted
# How it was run: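 Growth of hTDP1-complemented DT40 Tdp1-knockout cells is measured by ATP luminescence after at least 48 hr compound exposure at 37 °C, with DMSO substituting for the 20 nM CPT used in the parallel screen.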
# On the % scale 0 is the no-effect control and ±100 the full control effect; potency means the concentration at half of the fitted maximal effect; tags describe the fitted curve by direction and shape.
Structure (SMILES),Potency,"activity change, negative = growth inhibition"
CC1CC(C)CN(C(=O)CCC(=O)Nc2nnc(C3CCCCC3)s2)C1 (stereo not given),"inconclusive: 0.651 µM [inhibitor, full curve, poor fit]",–
CCOC(=O)c1nn(C)c2[nH]c(=O)n(C)c(=O)c12,inactive,–
Cc1cccc(C)c1NC(=O)C(c1cccc([N+](=O)[O-])c1)N(C)C(=O)c1ccccn1 (stereo not given),"inconclusive: 16.4 µM [inhibitor, partial curve, poor fit]",–
Oc1c(Br)cc(Br)cc1-c1nc2ccccc2s1,inactive,–
COc1ccc(NC(=O)C(=O)NCCN2CCN(C(=O)c3ccc(C(C)(C)C)cc3)CC2)cc1,active: 16.4 µM,–
Cc1ccccc1CSCCNC(=O)c1ccc(N(C)S(=O)(=O)c2ccccc2)cc1,"inconclusive: 25.9 µM [inhibitor, single point]",–
CCOc1cccc(/C=N/N=C/c2cccc(OCC)c2O)c1O,inactive,–
Cc1ccc2c(C)c(C(=O)N(C)CCC3CCCCO3)oc2c1C (stereo not given),"inconclusive: 16.4 µM [inhibitor, single point]",–
CC(NC(=O)c1ccc(NS(C)(=O)=O)cc1)c1ccccc1 (stereo not given),–,inconclusive: -33.6% [inhibitor]
CS(=O)(=O)N(CC(=O)NCCSc1ccccc1)c1cc(C(F)(F)F)ccc1Cl,"inconclusive: 18.4 µM [inhibitor, single point]",–
CCOc1ccccc1Oc1cn[nH]c1-c1ccc(O)cc1O,"inconclusive: 23.1 µM [inhibitor, single point]",–
Cc1ccccc1-n1c(C)n[nH]c1=S,inactive,–
CCOC(=O)C1CN(S(=O)(=O)c2ccc(OC)cc2)c2cc(Cl)ccc2O1 (stereo not given),active: 20.6 µM,–
Oc1ccccc1CN1CCCC(N2CCN(c3cccc(C(F)(F)F)c3)CC2)C1 (stereo not given),"inconclusive: 23.1 µM [inhibitor, single point]",–
COCc1ccc(C(=O)NC2CCSc3ccccc32)cc1 (stereo not given),"inconclusive: 29.1 µM [inhibitor, single point]",–
CCOc1ccc(-c2cc(C(=O)NCc3ccccc3)[nH]n2)c(C)c1,"inconclusive: 29.1 µM [inhibitor, single point]",–
COc1cccc(C2C(C(=O)Nc3ccccc3)=C(C)Nc3nc(-c4ccccc4)nn32)c1 (stereo not given),"inconclusive: 23.1 µM [inhibitor, single point]",–
CCOC(=O)c1ccc(S(=O)(=O)NC2CCC(C)CC2)cc1 (stereo not given),active: 20.6 µM,–
CC1CC(C)CN(CCCNC(=O)c2ccc3c(SCC(=O)O)c4c(nc3c2)CCC4)C1 (stereo not given),inactive,–
CC(=O)Nc1ccc(S(=O)(=O)Nc2cccc(-c3nc4cc(C)ccc4o3)c2)cc1,active: 20.6 µM,–
COc1ccc(OC)c(NC(=O)CSc2cn(CC(=O)N3CCOCC3)c3ccccc23)c1,"inconclusive: 16.4 µM [inhibitor, single point]",–
CCC(C)NC(=O)C1CCN(S(=O)(=O)c2cccs2)CC1 (stereo not given),inactive,–
Cc1cccc(COC(=O)CCCNC(=O)c2ccc(Cl)cc2)c1,inactive,–
CC1CCCC(NS(=O)(=O)c2cc(Br)cnc2N)C1C (stereo not given),inactive,–

Structure (SMILES),Potency,"activity change, negative = growth inhibition"
COc1ccc(C(=O)COC(=O)c2cc(S(=O)(=O)N3CCCCC3)ccc2N2CCOCC2)c(OC)c1,"inconclusive: 29.1 µM [inhibitor, single point]",–
COc1cc(OC)cc(C(=O)NC2CCCCCCC2)c1,"inconclusive: 29.1 µM [inhibitor, single point]",–
Cc1ccc(C)c(C(O)c2ncc(-c3ccccc3F)[nH]2)c1 (stereo not given),–,inconclusive: -30.8% [inhibitor]
CC(=O)NC(CCS(C)(=O)=O)C(=O)Nc1cccc(C)c1 (stereo not given),inactive,–
CSc1nnc(-c2sc3cc(C(F)(F)F)cnc3c2-c2ccccc2)n1C,active: 16.4 µM,–
CCCN(CCC)C(=O)C1CCCN(S(=O)(=O)c2ccc3c(c2)oc(=O)n3C)C1 (stereo not given),"inactive and inconclusive: 23.1 µM [inhibitor, single point]",–
CCOC(=O)N1CCN(C(=O)c2oc3ccc(S(=O)(=O)N4CCCCCC4)cc3c2C)CC1,active: 13 µM,–
Cc1ccc(CN(CC2CCCO2)C(=O)CN2C(=O)C(C(C)C)Oc3ccccc32)o1 (stereo not given),"inconclusive: 29.1 µM [inhibitor, single point]",–
COc1ccc(CN(C)Cc2nc3scc(-c4ccccc4)c3c(=O)[nH]2)cc1OC,active: 6.51 µM,–
Cc1ccccc1NC(=S)NC1(C)CCS(=O)(=O)C1 (stereo not given),inactive,–
Cc1ccc(CN2CC(C(=O)Nc3ccncc3)CC2=O)cc1 (stereo not given),inactive,–
CC(=O)Nc1ccc(S(=O)(=O)NCCc2ccccc2)cc1,"inconclusive: 18.4 µM [inhibitor, single point]",–
Cc1cc(C(F)(F)F)nn1Cc1n[nH]c(=S)n1Cc1ccccc1,inactive,–
COc1ccc(C(CNC(=O)C(CCSC)NC(=O)c2ccccc2OC)N2CCCCC2)cc1 (stereo not given),"inconclusive: 16.4 µM [inhibitor, single point]",–
Cc1cccc(C(=O)NCc2nnc(SCc3ccc(F)cc3)n2C)c1,"inconclusive: 13 µM [inhibitor, partial curve]",–
Cc1cc(C(=O)OCC(=O)NCc2ccc(Cl)cc2Cl)c(C)o1,inactive,–
CCN1CCN(C(=O)C(C)Nc2ccc(OC)cc2OC)CC1 (stereo not given),inactive,–
Cc1nc(-c2ccc(S(=O)(=O)N3CCN(C4c5ccccc5-c5ccccc54)CC3)s2)cs1,–,inconclusive: -35.1% [inhibitor]
O=C(Cc1ccc(F)cc1)N1CCC2(CC1)NCCc1[nH]cnc12,inactive,–
CCOc1ccc(OCC)c(NC(=O)CN(c2ccc(C)cc2)S(=O)(=O)c2c(C)noc2C)c1,active: 23.1 µM,–
CCC1=NN(C(=O)C(=O)Nc2ccccc2OC)C(O)(C(F)(F)F)C1 (stereo not given),–,inconclusive: -31.1% [inhibitor]
N#C/C(=C/c1ccc(N2CCOCC2)o1)c1ccc(Br)cc1,active: 14.6 µM,–
CN(C(=O)c1ccc(NC(=O)Cc2cccc(NC(=O)C3CCCN(C(=O)CCc4ccccc4)C3)c2)cc1)C1CC1 (stereo not given),"inconclusive: 18.4 µM [inhibitor, single point]",–
CCC1=C2CC[C@H]3C(=O)N(CC)C(=O)[C@H]3[C@H]2[C@@]2(Cc3ccccc3)C(=NCc3ccccc3)OC(=O)N2C1=O,"inconclusive: 0.58 µM [inhibitor, full curve, poor fit]",–

Structure (SMILES),Potency,"activity change, negative = growth inhibition"
Cc1ccc(C)c(NC(=O)C2CCCN(S(=O)(=O)c3ccc4[nH]c(=O)ccc4c3)C2)c1 (stereo not given),"inconclusive: 18.4 µM [inhibitor, single point]",–
COc1cc(CC(=O)Nc2ccccc2N2CCCCC2)cc(OC)c1OC,"inconclusive: 20.6 µM [inhibitor, single point]",–
CC(C)(C)NC(=O)NC(=O)CN1CCN(c2cccc(Cl)c2)CC1,"inconclusive: 20.6 µM [inhibitor, single point]",–
CCOC(=O)[C@@H]1[C@H]2COc3cc(OC)ccc3[C@@H]2N2C(=O)N(c3ccc(Cl)cc3)C(=O)[C@@]12C,"inconclusive: 18.4 µM [inhibitor, single point]",–
Cn1c(=O)c2c(nc(SCC(=O)Nc3ccccc3N3CCCCC3)n2C)n(C)c1=O,"inconclusive: 25.9 µM [inhibitor, single point]",–
CCCCCCC(=O)NC(Nc1ccc(S(N)(=O)=O)cc1)C(Cl)(Cl)Cl (stereo not given),"inconclusive: 18.4 µM [inhibitor, partial curve]",–
O=C(NCc1ccccc1)C1c2ccccc2OCC(=O)N1CCc1ccccc1 (stereo not given),inactive,–
C=C[C@]1(C)C=C2C(=O)[C@@]3(O)OC(=O)[C@@]4(CCCC(C)(C)[C@H]34)[C@@]2(O)CC1,active: 1.64 µM,–
O=C(O)c1ccccc1OC(C(=O)Nc1cc(Cl)cc(Cl)c1)c1ccccc1 (stereo not given),active: 25.9 µM,–
Clc1cccc(CNCC2CCCO2)c1Cl (stereo not given),inactive,–
CC(C)Cc1nnc(NC(=O)c2ccc3c(c2)NC(=O)C(C)S3)s1 (stereo not given),"inconclusive: 14.6 µM [inhibitor, single point]",–
C#CCN(C[C@H]1[C@H](OC(=O)NCc2ccco2)[C@H](OC(=O)NCc2ccco2)C[C@@H](C(=O)OC)[C@H]1C(=O)OC)S(=O)(=O)c1ccc(C)cc1,"inconclusive: 32.6 µM [inhibitor, single point]",–
CCOC(=O)CC(=O)NC1(Cc2ccc(O)cc2)CCCCC1,inactive,–
COCCCNc1c2c(nc3ccccc13)CCC2,"inconclusive: 20.6 µM [inhibitor, single point]",–
Cn1c(=O)c(CCc2ccccc2)nc2cncnc21,"inconclusive: 25.9 µM [inhibitor, single point]",–
CCOC(=O)C1=C(C)N(CCCC(=O)O)C(=O)NC1c1ccccc1 (stereo not given),inactive,–
COc1cccc(CN(C)C(=O)c2ccc(NC(=O)CC3SC(N4CCCCC4)=NC3=O)cc2)c1OC (stereo not given),inactive,–
CC(=O)OC1CC2C(C)(C)C(O)CC(O)[C@@]2(C)C2CC[C@@]3(C)C(=CC(=O)OC3c3ccoc3)[C@]12C (stereo not given in full),"inconclusive: 14.6 µM [inhibitor, partial curve]",–
O=C(Nc1ccccn1)c1cccc(S(=O)(=O)N2CCc3ccccc3C2)c1,"inconclusive: 7.31 µM [inhibitor, partial curve, poor fit]",–
CC(=O)Nc1nonc1-c1nnc(SCC(=O)Nc2ccc(C)cc2C)n1C,"inconclusive: 29.1 µM [inhibitor, single point]",–
O=C(Nc1ccccc1)C1Cc2c(-c3ccccc3Oc3ccccc3)ccnc2O1 (stereo not given),"inconclusive: 18.4 µM [inhibitor, single point]",–
O=C(N/N=C/c1cc([N+](=O)[O-])ccc1Cl)c1ccc2nc[nH]c2c1,"inconclusive: 29.1 µM [inhibitor, single point]",–
